Test results published in the supplement of paper PMC11417369.
The other results are listed elsewhere or left out.

tested on: PF3D7_0420300 AP2 domain 1 (GST-tagged); test: gcPBM binding intensity (ln(normalized median fluorescence intensity)); higher = stronger DNA binding
Method in brief: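 In this array assay, P. falciparum DNA-binding domains with a GST tag, expressed in E. coli, were applied for 1 h to primer-extended double-stranded 36-bp intergenic genomic probes and negative controls on an Agilent 4 × 180k array. Bound protein was visualised with Alexa488 anti-GST antibody at 488 nm. Binding intensity is the highest Masliner-normalised natural-log median intensity across replicate spots of either probe orientation.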

First: TATTGTATATACTATACACACACATACATACATACA [CACACA_site8172]
Second: ATATATTTATATAAATGTACATACAGCACATTTATA [XGTACX_site4725]
The “gcPBM binding intensity (ln)” value of the first is higher: 9.8 for the first, 9.08 for the second.

First: CAAATATACATATGTAGTACATGTTGTAGATAATTT [XGTACX_site2790]
Second: TACTTTATATAAAGATCAAAAAATAAATAATTATAA [TGCATGCA_negctrl_site446]
The “gcPBM binding intensity (ln)” value of the first is higher: 9.31 for the first, 8.95 for the second.

Going from “GAAGCCCTATGAAAAGTGCGGTTCATGAACAAAGAA [GTGCAC_site9828]” to “GGATAATATATTAGAACACACATATAGATGTAAAAA [CACACA_site6229]”, the “gcPBM binding intensity (ln)” value rises from 9.23 to 9.46.

First: AGAATAAGAATTATTAGTACTTATAAATATTATATT [XGTACX_site7228]
Second: TAATTTAAAATATATAGTACACACGTGAACACAAAT [XGTACX_site792]
The “gcPBM binding intensity (ln)” value of the first is lower: 9.18 for the first, 9.49 for the second.

Compared with “CTATTACATTAAATGTGTACATATATATATATATAT [XGTACX_site5233]”, “GTAAATACACATATGTGTACATATATATATATATAT [XGTACX_site3696]” is higher in “gcPBM binding intensity (ln)” value: 9.21 for the first, 9.44 for the second.

Going from “GTGGCTACTATATATTGTACGATATTATATATATAC [XGTACX_site8376]” to “GGTTCATTAAAGTGTACACATAAATACCGTAACATT [CACACA_site6002]”, the “gcPBM binding intensity (ln)” value falls from 9.32 to 9.31.

Compared with “CTAAGGTATGATTAATCACACACATAAATATATATA [CACACA_site8847]”, “ACCATATAAATAAACACACACACACCCATATATATA [CACACA_site2321]” is higher in “gcPBM binding intensity (ln)” value: 9.44 for the first, 10.2 for the second.

Going from “TATATATCTATATTTACACACAGTTACTATGTAGAT [CACACA_site7532]” to “GTTAAACTTAATATCGGTACACACACAAGATAAGAA [XGTACX_site1660]”, the “gcPBM binding intensity (ln)” value rises from 9.54 to 9.92.

First: ATAATATGTATAATCACACATTTTTCTTTTAAGACA [CACACA_site5297]
Second: GTAAGAATATTTATAAATGTATAATTTGTATTATTT [GTGCAC_negctrl_site667]
The “gcPBM binding intensity (ln)” value of the first is lower: 9.13 for the first, 9.22 for the second.

Going from “ATCGAAATTTTAGAATATATATGATGTTACTTAAGT [GTGCAC_negctrl_site611]” to “TAAAATATCATAGATAGTACATATAACGTTTTATAT [XGTACX_site5666]”, the “gcPBM binding intensity (ln)” value rises from 9.11 to 9.26.

First: CATGACATAAAAAATATACACACTATAATATATATA [CACACA_site1402]
Second: AAATATATTATATTTAGTACGCATATATAATATGCA [XGTACX_site4835]
The “gcPBM binding intensity (ln)” value of the first is higher: 9.51 for the first, 8.94 for the second.

Going from “ATGAAAATTTATATTGCACACATAGGGAATAAAAAA [CACACA_site8667]” to “AGTTAATTAATAGGCACACATATATATGTATAAATA [CACACA_site523]”, the “gcPBM binding intensity (ln)” value falls from 9.46 to 9.41.

Going from “ATATATATACATATAACACACACATATATATATATA [CACACA_site8827]” to “TTGTATTTATTTATGGGAGGATTATAATCATTGTAG [GTGCAC_negctrl_site268]”, the “gcPBM binding intensity (ln)” value falls from 9.58 to 9.18.

First: TAATTCACATTTTATACACACATTCGAACCTTTTTT [CACACA_site3341]
Second: TATAGATATATACGGTGTACATACATAAAAAAAAAA [XGTACX_site1648]
The “gcPBM binding intensity (ln)” value of the first is higher: 9.62 for the first, 9.27 for the second.

Going from “ATTTTTATTAGTTATTGTACTTATTATTTATTAATT [XGTACX_site2568]” to “TATAGTCAACTAGTCACACATATAATTATATATATA [CACACA_site5872]”, the “gcPBM binding intensity (ln)” value falls from 9.58 to 9.22.

First: TATAAAGAAATCATTACACACAAATAAATACATACA [CACACA_site2675]
Second: TATTTTTTTTGTCATATATAAGAAACGCTCTTCTTT [TGCATGCA_negctrl_site127]
The “gcPBM binding intensity (ln)” value of the first is higher: 9.88 for the first, 9.07 for the second.

First: ATATTTATATTTTCATGTACGTATTTTTATATATAT [XGTACX_site8478]
Second: TGCATTATATTAAATTTTTTATTTGTTGATGTTATA [GTGCAC_negctrl_site371]
The “gcPBM binding intensity (ln)” value of the first is higher: 9.65 for the first, 9.25 for the second.

Going from “TGAAATAAAATTTGTACACACATATTTATTTATATA [CACACA_site6421]” to “AAATAAAAGATATTTTTACACACTTTTGATGAGATC [CACACA_site9000]”, the “gcPBM binding intensity (ln)” value falls from 9.28 to 9.23.

First: CACAAGAAAATTCACACACACACATATATATATATA [CACACA_site3880]
Second: TCCTTAATTCAAAAAATAATATCTTATATTTCAAAT [CACACA_negctrl_site1592]
The “gcPBM binding intensity (ln)” value of the first is higher: 9.98 for the first, 8.72 for the second.

Going from “GGAATAAAGACAGCACGTACATATCTTACGAAGCTC [XGTACX_site3918]” to “GGTTAGACGAAATATACATGCAATGGAAAATAAGTT [TGCATGCA_site23]”, the “gcPBM binding intensity (ln)” value rises from 9.28 to 9.48.

First: ATATTAATTTCTCATGCATGTTCTTCCCAATTGTAA [TGCATGCA_site425]
Second: TCATCATGTATGTACACACATACATATATTATGTAC [CACACA_site1386]
The “gcPBM binding intensity (ln)” value of the first is higher: 9.45 for the first, 9.44 for the second.

Going from “CTTTTTGAAATATTAACACACATTTTGTTAATGAAT [CACACA_site6087]” to TATAAGTAGATAAGGGTGCACAATATAAATATATAG, the “gcPBM binding intensity (ln)” value rises from 9.23 to 9.51.

First: TTGTACATCTTTTGCACACGTAATGTTATTAAAATA [CACACA_site4827]
Second: TGTATATTTGTTGTTACACACATATATTTTTTTTTT [CACACA_site128]
The “gcPBM binding intensity (ln)” value of the first is lower: 9.35 for the first, 9.55 for the second.

Compared with “TTAACTATAATAAAATGTACATATGTAACATATATA [XGTACX_site7790]”, “AGGTCCTACACCAATAAATATCATATATATATTATA [CACACA_negctrl_site568]” is higher in “gcPBM binding intensity (ln)” value: 9.18 for the first, 9.19 for the second.

Going from “TTATAACAAAAAATTAAAGAAAGAGAATAAGTGAAA [CACACA_negctrl_site975]” to “TATGGAAGAAAATATACACACAAAAAAAAAAAATGG [CACACA_site4924]”, the “gcPBM binding intensity (ln)” value rises from 9.43 to 9.96.

Going from “ATGATTTTTTTTATTTTTTAGCTAGAGCTAGCTTAT [CACACA_negctrl_site433]” to “ATATGTTAAAAATTCACACAAAAAAGTATACAGATA [CACACA_site4179]”, the “gcPBM binding intensity (ln)” value rises from 9.01 to 9.53.

First: TATGAATGCTTTTATGCACACGTACAAAAATATTAT [CACACA_site8851]
Second: TTACCTATTCTAAAATGTACACATTATATATGTGCT [XGTACX_site5776]
The “gcPBM binding intensity (ln)” value of the first is lower: 9.21 for the first, 9.26 for the second.

Compared with “ACATGTTTCATATGTTGTACTAACTTAAATATAAAT [XGTACX_site6412]”, “TAAAGTACAGGAGTAAATTGAAAAAAAAAAAAAAAA [CACACA_negctrl_site1410]” is lower in “gcPBM binding intensity (ln)” value: 9.16 for the first, 8.73 for the second.
